{"source": "the antibiotic and cytotoxicity screens of Wong et al. (2023)", "note": "The list shows a part of the results."}
{"system": "HSkMC (human skeletal muscle cells)", "experiment": "cytotoxicity call (relative viability < 0.9)", "conditions": "10 µM"}
{"smiles": "O=C1CCC(=O)N1Cc1cccc(CN2C(=O)[C@]3(CC(=O)N(Cc4ccccc4)C3=O)c3ccccc32)c1", "cytotoxicity call": "inactive"}
{"smiles": "O=c1oc2c(O)c(O)cc3c(=O)oc4c(O)c(O)cc1c4c23", "cytotoxicity call": "inactive"}
{"smiles": "CCCN(C)C[C@@H]1OCCCC[C@H](C)Oc2ccc(NC(=O)c3ccccc3)cc2C(=O)N([C@@H](C)CO)C[C@@H]1C", "cytotoxicity call": "inactive"}
{"smiles": "CN(C)C(=O)C[C@H]1CC[C@@H]2[C@H](COC[C@H](O)CN2S(=O)(=O)c2ccccc2)O1", "cytotoxicity call": "inactive"}
{"smiles": "C[C@H]1CCCCO[C@H](CN(C)C(=O)Nc2ccc3c(c2)OCO3)[C@@H](C)CN([C@@H](C)CO)C(=O)c2cc(NC(=O)NC3CCCCC3)ccc2O1", "cytotoxicity call": "inactive"}
{"smiles": "COc1ccc(NC(=O)N(C)C[C@H]2OCCCC[C@@H](C)Oc3ccc(NC(=O)CCC(F)(F)F)cc3C(=O)N([C@H](C)CO)C[C@@H]2C)cc1", "cytotoxicity call": "inactive"}
{"smiles": "COc1ccc(S(=O)(=O)N(C)C[C@@H]2OCc3cn(nn3)CCCC(=O)N([C@H](C)CO)C[C@H]2C)cc1", "cytotoxicity call": "inactive"}
{"smiles": "Cn1cc(CN2CCO[C@]3(COCCN(S(C)(=O)=O)C3)C2)cn1", "cytotoxicity call": "inactive"}
{"smiles": "O=c1c(O[C@@H]2O[C@H](CO)[C@@H](O)[C@H](O)[C@H]2O)c(-c2ccc(O)c(O)c2)oc2cc(O)cc(O)c12", "cytotoxicity call": "inactive"}
{"smiles": "C[C@H](CO)N1C[C@H](C)[C@H](CN(C)C(=O)NC2CCCCC2)Oc2c(NC(=O)c3ccc(-c4nccs4)cc3)cccc2C1=O", "cytotoxicity call": "inactive"}
{"smiles": "C[C@@H]1CN([C@H](C)CO)C(=O)c2cc(NC(=O)C3CCCCC3)ccc2O[C@@H](C)CCCCO[C@H]1CN(C)C(=O)Cc1ccccc1", "cytotoxicity call": "inactive"}
{"smiles": "CC(=O)OC1(C(C)=O)CCC2C3C=C(C)C4=CC(=O)CCC4(C)C3CCC21C", "note": "(stereo not given)", "cytotoxicity call": "inactive"}
{"smiles": "C[C@@H]1CCCCO[C@H](CN(C)Cc2ccc(C(=O)Nc3ccccc3N)cc2)[C@@H](C)CN([C@H](C)CO)C(=O)c2cc(NS(=O)(=O)c3ccc(Cl)cc3)ccc2O1", "cytotoxicity call": "inactive"}
{"smiles": "CC(C)NC(=O)Nc1ccc2c(c1)C(=O)N([C@@H](C)CO)C[C@H](C)[C@H](CN(C)C(=O)Nc1ccccc1)OCCCC[C@H](C)O2", "cytotoxicity call": "inactive"}
{"smiles": "Cc1ccc(NC(=O)[C@H]2CCCN(C(=O)c3c(C)cccc3F)[C@H]2c2ccc(NC3CCCC3)cc2)cc1C(F)(F)F", "cytotoxicity call": "inactive"}
{"smiles": "COCC(=O)N1C[C@@H](C)[C@H](OC)CN(C)C(=O)c2cc(NC(=O)Nc3ccccc3)ccc2OC[C@@H]1C", "cytotoxicity call": "inactive"}
{"smiles": "COc1ccc(S(=O)(=O)N(C)C[C@H]2Oc3ccc(NS(=O)(=O)c4c(C)noc4C)cc3C(=O)N([C@H](C)CO)C[C@H]2C)cc1", "cytotoxicity call": "inactive"}
{"smiles": "COCC#Cc1ccc([C@@H]2[C@@H](CO)N3C(=O)CN(C(=O)c4ccncc4)C[C@H]23)cc1", "cytotoxicity call": "inactive"}
{"smiles": "COc1ccc(S(=O)(=O)N(C)C[C@H]2Oc3ccc(N(C)C)cc3CC(=O)N([C@@H](C)CO)C[C@H]2C)cc1", "cytotoxicity call": "inactive"}
{"smiles": "Cc1noc(C)c1NC(=O)N(C)C[C@@H]1Oc2ccc(NC(=O)Nc3cccc4ccccc34)cc2CC(=O)N([C@@H](C)CO)C[C@H]1C", "cytotoxicity call": "inactive"}
{"smiles": "CC(C)CC(N)=O", "cytotoxicity call": "inactive"}
{"smiles": "C[C@@H]1CCCCO[C@H](CN(C)Cc2ccncc2)[C@@H](C)CN([C@@H](C)CO)C(=O)c2cc(NC(=O)Nc3ccccc3)ccc2O1", "cytotoxicity call": "inactive"}
{"smiles": "C[C@@H]1CN([C@H](C)CO)C(=O)c2ccccc2-c2ccccc2CO[C@@H]1CN(C)C(=O)Nc1ccc(-c2ccccc2)cc1", "cytotoxicity call": "inactive"}
{"smiles": "C[C@H]1CN([C@@H](C)CO)C(=O)Cc2cc(NC(=O)CCCCCC(=O)Nc3ccccc3N)ccc2O[C@@H]1CN(C)C(=O)Nc1ccc(F)cc1", "cytotoxicity call": "inactive"}
{"smiles": "Cc1[nH]c2ncnn2c(=O)c1NS(C)(=O)=O", "cytotoxicity call": "inactive"}
{"smiles": "C[C@@H]1CN([C@H](C)CO)C(=O)c2cc(NS(C)(=O)=O)ccc2O[C@@H]1CN(C)S(=O)(=O)c1cn(C)cn1", "cytotoxicity call": "inactive"}
{"smiles": "COc1cccc(-c2ccc3c(c2)O[C@H](CN(C)Cc2cncnc2)[C@H](C)CN([C@@H](C)CO)S3(=O)=O)c1", "cytotoxicity call": "inactive"}
{"smiles": "Nc1ncnc2[nH]c(=S)[nH]c12", "cytotoxicity call": "inactive"}
{"smiles": "C[C@H](CO)N1C[C@H](C)[C@H](CN(C)Cc2ccc(C(=O)Nc3ccccc3N)cc2)Oc2ccc(NC(=O)Cn3cnnn3)cc2C1=O", "cytotoxicity call": "inactive"}
{"smiles": "C[C@@H]1CN([C@@H](C)CO)C(=O)Cc2cc(NS(=O)(=O)c3cccs3)ccc2O[C@H]1CN(C)Cc1ccc(Oc2ccccc2)cc1", "cytotoxicity call": "inactive"}
{"smiles": "Cl.N=C(N)NCCCC(N)C(=O)O", "note": "(stereo not given)", "cytotoxicity call": "inactive"}
{"smiles": "CCCCC1=NC2(CCCC2)C(=O)N1Cc1ccc(-c2ccccc2S(=O)(=O)Nc2noc(C)c2C)c(COCC)c1", "cytotoxicity call": "inactive"}
{"smiles": "CN(C)CC(=O)N[C@@H]1CC[C@@H](CCNS(=O)(=O)c2ccccc2)O[C@H]1CO", "cytotoxicity call": "inactive"}
{"smiles": "C[C@@H]1CN([C@@H](C)CO)C(=O)c2cc(NC(=O)Nc3ccc4c(c3)OCO4)ccc2O[C@H]1CN(C)Cc1ccc(C(=O)Nc2ccccc2N)cc1", "cytotoxicity call": "inactive"}
{"smiles": "CC(C)NC(=O)Nc1ccc2c(c1)C(=O)N([C@H](C)CO)C[C@H](C)[C@H](CN(C)S(=O)(=O)c1cccs1)O2", "cytotoxicity call": "inactive"}
{"smiles": "C[C@@H]1CN([C@@H](C)CO)C(=O)Cc2cc(NC(=O)Nc3ccccc3)ccc2O[C@@H]1CN(C)S(=O)(=O)c1cn(C)cn1", "cytotoxicity call": "inactive"}
{"smiles": "CC(C)NC(=O)Nc1ccc2c(c1)C(=O)N([C@@H](C)CO)C[C@@H](C)[C@@H](CN(C)C(=O)Nc1ccccc1)OCCCC[C@@H](C)O2", "cytotoxicity call": "inactive"}
{"smiles": "C[C@@H]1CN([C@@H](C)CO)C(=O)c2cc(C#CCN(C)C)cnc2O[C@H]1CN(C)C(=O)c1cnccn1", "cytotoxicity call": "inactive"}
{"smiles": "O=C1NC(=S)NC12CCCCC2", "cytotoxicity call": "inactive"}
{"smiles": "O=C(N/N=C/[C@H](O)[C@H](O)[C@@H](O)[C@@H](O)CO)c1ccccc1O", "cytotoxicity call": "inactive"}
